Reference: PubChem BioAssay AID902 (National Center for Advancing Translational Sciences (NCATS), 2007)
Several values for one entry are separate records, joined by “and”; a condition that tells them apart may be missing. Identical values can stand only once. Out of some 130,000 compounds screened, about 1,900 (1.5%) were called active. Inconclusive means that the source gave no clear call. Such entries were picked first, then a sample of the others. Calls follow the shape of the dose curve; as a rule, active = well fitted cell-killing curve with a large enough effect; inconclusive = small, poorly fitted or top-dose-only effect; inactive = no such curve, though single readings can be large or run the other way. Where the call is inconclusive, the potency comes from a doubtful curve fit.

Experiment: qHTS Screen for Compounds that Selectively Target Cancer Cells with p53 Mutations: Cytotoxicity of p53ts Cells at the Nonpermissive Temperature; also: nearly all actives have a fitted effect of over 55% in size
Conditions: H1299-p53A138V viability at 39C, ATP luminescence, 24 h; activity change, negative = cell killing: at 46.1 µM (top of the series)
% is scaled to controls: 0 for no effect and ±100 for the full control effect; potency is read from the fitted curve at half-maximal effect; tags tell the direction and shape of the fitted curve.

Which Potency does the source give for `CCCOc1ccc(C(=O)Nc2nonc2-c2ccc(OCC)cc2)cc1` here?
Its Potency is “inactive”.

Which Potency does the source give for `Cc1cc(C)cc(NC(=O)CSc2nc3c([nH]c4ccccc43)c(=O)n2-c2ccc(F)cc2)c1` here?
The Potency was inconclusive: 12.6 µM [cytotoxic, partial curve].

For `COc1cccc(CNc2ncnc3onc(C)c23)c1`, which Potency is on record?
The Potency was inconclusive: 0.0501 µM [cytotoxic, partial curve].

For `c1ccc(-n2ncc3c(NCc4cccs4)ncnc32)cc1`, which Potency is on record?
The Potency was “inactive”.

Which Potency does the source give for `Cc1oc(-c2ccc3c(c2)OCCO3)cc1C(=O)O` here?
The Potency was inconclusive: 15.8 µM [cytotoxic, single point].

With `COc1ccc(CNC(=O)Cn2c(=O)c3cccn3c3ccccc32)cc1` as the compound, how does the Potency read?
Its Potency is inconclusive: 5.62 µM [cytotoxic, single point].

With `COc1ccc(-c2cc(C(=O)Oc3ccc(C)cc3)c3ccccc3n2)cc1` as the compound, how does the Potency read?
Its Potency is inconclusive: 7.94 µM [cytotoxic, partial curve].

With `O=C(Nc1ccc(Br)cc1)c1cc(-c2cccs2)nc2ccccc12` as the compound, how does the Potency read?
The Potency was inconclusive: 7.94 µM [cytotoxic, partial curve].

Which Potency does the source give for `COC(=O)c1ccc(C(NC(=O)OCc2ccccc2)/C(=C/[C@@H](C)C(=O)NCc2nc3ccccc3n2C)c2cccnc2)cc1` (stereo partly drawn) here?
The Potency was “inactive”.

With `CC1CCCN(CCCNC(=O)c2ccc3c(c2)N(Cc2cccc(Cl)c2)C(=O)c2ccccc2S3(=O)=O)C1` (stereo not drawn) as the compound, how does the Potency read?
Its Potency is active: 12.6 µM.

With `Cc1ccc(C)c(CNC(=O)c2ccc3c(c2)nc2n3CCOC2)c1` as the compound, how does the Potency read?
Its Potency is inconclusive: 0.0158 µM [cytotoxic, full curve, poor fit].

For `COc1ccc(C)cc1NC(=O)Nc1cc(C(=O)NCc2ccc(C)cc2)ccc1N1CCCC1`, which activity change, negative = cell killing is on record?
Its activity change, negative = cell killing is inconclusive: -30.8% [cytotoxic].

Which Potency does the source give for `COc1ccc(-c2nc3sc(CCNC(=O)Cc4ccc(F)cc4)c(C)n3n2)cc1` here?
Its Potency is “inactive”.

For `CC(C)c1ccc(-c2noc(SCC(=O)N3CCCCC3C)n2)cc1` (stereo not drawn), which Potency is on record?
Its Potency is inconclusive: 12.6 µM [cytotoxic, partial curve].

For `Cc1ccc(-n2ncc3c(N(C)C)ncnc32)cc1Cl`, which Potency is on record?
The Potency was active: 7.94 µM.

Which Potency does the source give for `Cc1cccc(CNc2ncnc3ccc(-c4cccc(C#N)c4)cc23)c1` here?
Its Potency is inconclusive: 15.8 µM [cytotoxic, single point].

With `O=C1c2ccccc2C(=O)C1c1ccnc2ccccc12` as the compound, how does the Potency read?
Its Potency is active: 5.62 µM.

With `CC(=O)c1sc(NC(=O)c2c(-c3ccccc3)c(-c3ccccc3)nn(C)c2=O)nc1C` as the compound, how does the Potency read?
Its Potency is inconclusive: 2.51 µM [cytotoxic, partial curve, poor fit].

Which Potency does the source give for `CC1CCc2onc(C(=O)N3CCN(c4ccc(F)cc4)CC3)c2C1` (stereo not drawn) here?
The Potency was “inactive”.

Which Potency does the source give for `CCOc1ccc(NC(=O)CCNS(=O)(=O)c2ccc3c(c2)CCCC(=O)N3)cc1` here?
Its Potency is “inactive”.

Which Potency does the source give for `CCCCS(=O)(=O)c1oc(-c2cccs2)nc1S(=O)(=O)c1ccc(F)cc1` here?
Its Potency is active: 3.16 µM.

With `Cc1c(C(=O)N2CCN(c3ccc(F)cc3)CC2)sc2nc3n(c(=O)c12)CCC3` as the compound, how does the Potency read?
The Potency was “inactive”.

Which Potency does the source give for `Cc1ccc(C(=O)Nc2nnc(S(=O)(=O)N3CCCCCC3)s2)cc1` here?
The Potency was inconclusive: 20 µM [cytotoxic, single point].

For `CCc1ccc(NC(=O)CSc2ccc3nc(-c4ccc(OC)cc4)cn3n2)cc1`, which Potency is on record?
The Potency was inconclusive: 3.16 µM [cytotoxic, full curve].

With `Cc1ccccc1CNC(=O)c1oc2c(c1C)-c1nn(Cc3ccc(Cl)cc3)cc1CC2` as the compound, how does the Potency read?
Its Potency is inconclusive: 5.62 µM [cytotoxic, single point].

Which Potency does the source give for `Cc1cccc(OCC(=O)NCCc2nc3ccccc3[nH]2)c1C` here?
The Potency was “inactive”.

For `[O-][N+]1=c2ccc(Nc3ccccc3)cc2=NC12CCCCC2`, which Potency is on record?
The Potency was active: 20 µM.

With `CN(C)c1ccc(C=Nc2ccc(N(C)C)cc2)cc1` as the compound, how does the Potency read?
The Potency was inconclusive: 11.2 µM [cytotoxic, partial curve, poor fit].

Which Potency does the source give for `CCOc1ccc(-n2nc(CO)c(C(=O)NCc3ccccn3)n2)cc1` here?
The Potency was inconclusive: 10 µM [cytotoxic, partial curve].

For `CCN(C(=O)C1CCC(CNS(=O)(=O)c2cccc3nsnc23)CC1)c1ccccc1` (stereo not drawn), which Potency is on record?
Its Potency is “inactive”.

Which Potency does the source give for `Cc1cc(C)cc(NC(=O)Cn2c(=O)n(C(C)C)c(=O)c3oc4ccccc4c32)c1` here?
The Potency was “inactive”.

With `CC(C)(C)c1ccc(C(=O)NNc2ncnc3c2cnn3-c2ccccc2)cc1` as the compound, how does the Potency read?
Its Potency is inconclusive: 20 µM [cytotoxic, partial curve].

For `COc1ccc(N2CCN(CCCNC(=O)c3ccc4nc(CCc5ccccc5)oc4c3)CC2)cc1`, which Potency is on record?
Its Potency is inconclusive: 2 µM [cytotoxic, full curve].

Which Potency does the source give for `COc1ccc(NC(=O)CSc2c3c(nc4ccc(Cl)cc24)CCCC3)cc1Cl` here?
The Potency was inconclusive: 5.01 µM [cytotoxic, partial curve].

Which Potency does the source give for `CCCN1C(=O)c2ccc(C(=O)Nc3nccs3)cc2C1=O` here?
The Potency was “inactive”.

Which Potency does the source give for `Cc1nc(Oc2ccccc2C)c2oc3ccccc3c2n1` here?
Its Potency is inconclusive: 7.94 µM [cytotoxic, partial curve].

For `COc1cc(Nc2cc(C)nc3nc(C)nn23)cc(OC)c1OC`, which Potency is on record?
Its Potency is “inactive”.

Which Potency does the source give for `CC1CCN(C(=O)CSc2nc(-c3ccc(C(C)C)cc3)no2)CC1` here?
The Potency was inconclusive: 12.6 µM [cytotoxic, partial curve].

Which Potency does the source give for `CCC1CCCCN1CCCNC(=O)c1ccc2c(c1)N(Cc1ccccc1F)C(=O)c1ccccc1S2(=O)=O` (stereo not drawn) here?
Its Potency is inconclusive: 12.6 µM [cytotoxic, single point].

With `COc1ccc2nc3oc(C(=O)N4CCCCC4)cc3cc2c1` as the compound, how does the Potency read?
The Potency was inconclusive: 12.6 µM [cytotoxic, partial curve].

Which Potency does the source give for `CCc1ccc(NC(=O)c2cc(S(=O)(=O)N3CCCC3)ccc2F)cc1` here?
Its Potency is inconclusive: 31.6 µM [cytotoxic, single point].

For `Cc1ccc(C)c(NC(=O)CCc2nc(-c3ccc(C(C)(C)C)cc3)no2)c1`, which Potency is on record?
Its Potency is inconclusive: 31.6 µM [cytotoxic, single point].

With `O=C(Nc1ccc(N2CCCCC2)cc1)c1cccnc1` as the compound, how does the Potency read?
Its Potency is inconclusive: 12.6 µM [cytotoxic, partial curve].

For `O=C(CSc1nc(-c2ccccc2)[nH]c1-c1ccccc1)Nc1ccc2c(c1)OCO2`, which Potency is on record?
The Potency was inconclusive: 12.6 µM [cytotoxic, partial curve].

Which Potency does the source give for `CCOc1ccc(Nc2nc(Cc3nnc(SCC(N)=O)o3)cs2)cc1` here?
The Potency was inconclusive: 20 µM [cytotoxic, partial curve].

With `Cn1c(CNC(=O)CSc2n[nH]c(-c3ccccc3)n2)nc2ccccc21` as the compound, how does the Potency read?
Its Potency is inconclusive: 10 µM [cytotoxic, partial curve].

With `O=C(Cn1c(=O)n(-c2ccc(Cl)cc2)c(=O)c2c3c(sc21)CCC3)c1ccc(F)cc1` as the compound, how does the Potency read?
Its Potency is “inactive”.

For `Cc1csc2nc(COc3ccc(NC(=O)COc4ccccc4F)cc3)cc(=O)n12`, which Potency is on record?
The Potency was inconclusive: 12.6 µM [cytotoxic, single point].

For `O=C(Nc1ccc(F)cc1)C1CCN(c2nc3ccccc3n3cccc23)CC1`, which Potency is on record?
Its Potency is inconclusive: 20 µM [cytotoxic, single point].

For `Clc1ccc(CC[C@H](Cn2ccnc2)Sc2c(Cl)cccc2Cl)cc1`, which Potency is on record?
Its Potency is inconclusive: 12.6 µM [cytotoxic, single point].

Which Potency does the source give for `COc1ccc(-c2cc(C(=O)NCc3cccs3)no2)cc1OC` here?
The Potency was “inactive”.

Which Potency does the source give for `COc1ccc(-c2nc(-c3ccncc3)no2)cc1OC` here?
Its Potency is “inactive”.

With `O=C(Nc1ccc2c(c1)CCC2)c1ccccc1F` as the compound, how does the Potency read?
Its Potency is inconclusive: 7.94 µM [cytotoxic, partial curve].

For `CCOC(=O)c1cnc2ccc(OC(F)(F)F)cc2c1Nc1ccccc1C(=O)O`, which Potency is on record?
The Potency was inconclusive: 31.6 µM [cytotoxic, single point].

Which Potency does the source give for `CCc1ccc(N2CC(c3nc4ccccc4n3Cc3ccccc3C)CC2=O)cc1` (stereo not drawn) here?
The Potency was inconclusive: 3.98 µM [cytotoxic, single point].

With `CCc1ccccc1NS(=O)(=O)c1ccc2[nH]cc(C(=O)NC3CCCC3)c(=O)c2c1` as the compound, how does the Potency read?
Its Potency is inconclusive: 10 µM [cytotoxic, partial curve].

For `CC(C)COc1ccc(C(=O)Nc2onc3c2CCCC3)cc1`, which Potency is on record?
Its Potency is active: 15.8 µM.

Which Potency does the source give for `COc1cc(CN(C(=O)c2ccc(C)cc2)c2ccccn2)cc(OC)c1OC` here?
The Potency was “inactive”.

For `Nc1ccc2oc(-c3ccccc3Cl)nc2c1`, which Potency is on record?
Its Potency is inconclusive: 15.8 µM [cytotoxic, partial curve].

With `CCc1ccc(NC(=O)C(=O)NCCc2sc(-c3ccc(C)cc3)nc2C)cc1` as the compound, how does the activity change, negative = cell killing read?
The activity change, negative = cell killing was inconclusive: -32.6% [cytotoxic].

Which Potency does the source give for `Cc1nn(C(C)C(=O)Nc2cccc(F)c2)c(=O)c2c1sc1ccccc12` (stereo not drawn) here?
Its Potency is inconclusive: 0.005 µM [cytotoxic, full curve, poor fit].

With `Cc1ccc(Nc2c(-c3ccc(N4CCOCC4)cc3)nc3ncccn23)c(C)c1` as the compound, how does the Potency read?
The Potency was inconclusive: 15.8 µM [cytotoxic, partial curve].

For `O=C(COc1ccccc1Cl)Nc1ccc2c(c1)OCCO2`, which Potency is on record?
The Potency was inconclusive: 10 µM [cytotoxic, single point].

Which Potency does the source give for `COc1ccccc1N1CCN(C[C@@H](O)COc2cccc3ccccc23)CC1` here?
The Potency was inconclusive: 7.94 µM [cytotoxic, partial curve] and inconclusive: 31.6 µM [cytotoxic, partial curve].

With `CCCC(=O)Nc1ccc(-c2ccc(NC(=O)CCC)cc2)cc1` as the compound, how does the Potency read?
Its Potency is inconclusive: 35.5 µM [cytotoxic, single point].

For `COC(=O)C1=C(C)NC(C)=C([N+](=O)[O-])[C@@H]1c1ccccc1C(F)(F)F`, which Potency is on record?
Its Potency is “inactive”.

For `NS(=O)(=O)c1ccc(N=Nc2nc3[nH]c(=O)[nH]c(=O)c3[nH]2)cc1`, which activity change, negative = cell killing is on record?
Its activity change, negative = cell killing is inactive: 0.625% [at 9.22 µM].

Which Potency does the source give for `Cc1ccc(NC2=C(CC(=O)O)C(c3ccc(F)cc3)N(c3ccc(C)cc3)C2=O)cc1` (stereo not drawn) here?
Its Potency is inconclusive: 6.31 µM [cytotoxic, partial curve, poor fit].
